Measurements: the supplement of paper PMC3334620
The full ranking holds about 33,000 sequences; the median of “E-score (-0.5 to 0.5)” is about -0.04, and the highest 2% start at about 0.36. The list shows a part of the results.

Target: T1, Hmlalpha2 (UniProt P0CY09)
T1 sequence: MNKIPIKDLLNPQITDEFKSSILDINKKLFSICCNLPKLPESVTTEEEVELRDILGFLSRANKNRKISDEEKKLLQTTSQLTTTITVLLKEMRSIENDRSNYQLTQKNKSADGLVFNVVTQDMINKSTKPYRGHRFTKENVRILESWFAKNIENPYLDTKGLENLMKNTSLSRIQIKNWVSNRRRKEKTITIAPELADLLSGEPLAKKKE
Assay: PBM E-score (8-mer binding enrichment) (E-score (-0.5 to 0.5)); higher = stronger / more preferred TF binding; most listed sequences are background and not binding sites
Conditions: protein concentration: 200 nM; construct: GST-full length
Summary of the method: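 Masliner-normalised scans of fluorescent anti-GST signal were the basis for scoring. That signal came from GST-tagged yeast transcription factors applied at about 100-200 nM to double-stranded universal all-10-mer Agilent arrays on fresh or once-stripped slides. Each ungapped eight-base word, pooled with its reverse complement, received an E-score from the Universal PBM Analysis Suite.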

Q: Which “PBM E-score” value does the source give for AGCCCCCG here?
A: -0.374

Q: Which “PBM E-score” value does the source give for CGCCAACG here?
A: -0.0698

Q: ACAAGATA was tested. Which “PBM E-score” value did it give?
A: 0.289

Q: How did the “PBM E-score” value turn out when GGACGGAA was run?
A: -0.171

Q: CATGTCGC was tested. Which “PBM E-score” value did it give?
A: 0.256

Q: For ACGTCCCA, which “PBM E-score” value is on record?
A: -0.135

Q: How did the “PBM E-score” value turn out when AGCTAGGC was run?
A: -0.196

Q: How did the “PBM E-score” value turn out when AGGGTAGA was run?
A: -0.285

Q: With ACTGCGAA as the sequence, how does the “PBM E-score” value read?
A: -0.0362

Q: How did the “PBM E-score” value turn out when GGTACGGA was run?
A: -0.0963

Q: For CTAAGCGA, which “PBM E-score” value is on record?
A: -0.278

Q: How did the “PBM E-score” value turn out when ATGACTAC was run?
A: 0.0237

Q: How did the “PBM E-score” value turn out when GCGCAGCA was run?
A: -0.181

Q: With GCTCCTAC as the sequence, how does the “PBM E-score” value read?
A: -0.0505

Q: Which “PBM E-score” value does the source give for CCAGTAAG here?
A: -0.035

Q: With ATCAAAAG as the sequence, how does the “PBM E-score” value read?
A: -0.154

Q: Which “PBM E-score” value does the source give for AAGACGCC here?
A: -0.157

Q: How did the “PBM E-score” value turn out when CTAATATA was run?
A: 0.223

Q: AGGCCAGG was tested. Which “PBM E-score” value did it give?
A: -0.218

Q: With CCTCAAAA as the sequence, how does the “PBM E-score” value read?
A: -0.0993

Q: For GCTTTACC, which “PBM E-score” value is on record?
A: 0.21

Q: How did the “PBM E-score” value turn out when CTGTCAAG was run?
A: -0.124

Q: How did the “PBM E-score” value turn out when GGAACCCC was run?
A: -0.373

Q: CTGACAAG was tested. Which “PBM E-score” value did it give?
A: 0.133

Q: Which “PBM E-score” value does the source give for GGCCTACC here?
A: -0.247

Q: How did the “PBM E-score” value turn out when GCCGTGCA was run?
A: 0.0721

Q: TAACTGGA was tested. Which “PBM E-score” value did it give?
A: -0.103

Q: Which “PBM E-score” value does the source give for AACTTTTA here?
A: 0.225

Q: CCTCGTAC was tested. Which “PBM E-score” value did it give?
A: -0.0632

Q: Which “PBM E-score” value does the source give for CCTAGGTC here?
A: -0.382

Q: How did the “PBM E-score” value turn out when ATGAGTAC was run?
A: 0.155

Q: For ATTGCCCC, which “PBM E-score” value is on record?
A: -0.315

Q: For CCAGGCCC, which “PBM E-score” value is on record?
A: -0.187

Q: With CCTACTAC as the sequence, how does the “PBM E-score” value read?
A: -0.0206

Q: ACATCACA was tested. Which “PBM E-score” value did it give?
A: 0.237

Q: Which “PBM E-score” value does the source give for GCCGATTA here?
A: 0.0665

Q: With GCGTCAGA as the sequence, how does the “PBM E-score” value read?
A: 0.00147

Q: Which “PBM E-score” value does the source give for AACTACTA here?
A: 0.185

Q: With CAGAGTGG as the sequence, how does the “PBM E-score” value read?
A: -0.17

Q: Which “PBM E-score” value does the source give for AGAAACAG here?
A: -0.0268

Q: ACGTAGTG was tested. Which “PBM E-score” value did it give?
A: 0.156

Q: Which “PBM E-score” value does the source give for AAAGTAGT here?
A: 0.149

Q: How did the “PBM E-score” value turn out when CATTAGGG was run?
A: -0.217

Q: How did the “PBM E-score” value turn out when GATTACCA was run?
A: 0.087

Q: AGACGCCT was tested. Which “PBM E-score” value did it give?
A: -0.0767

Q: Which “PBM E-score” value does the source give for TCAATCGA here?
A: 0.0055

Q: Which “PBM E-score” value does the source give for ATCCCAAA here?
A: -0.262

Q: Which “PBM E-score” value does the source give for GTATCGCA here?
A: -0.0382

Q: For GAATCACC, which “PBM E-score” value is on record?
A: -0.0134

Q: With CGGGACCG as the sequence, how does the “PBM E-score” value read?
A: -0.268

Q: Which “PBM E-score” value does the source give for AGTGTCAA here?
A: 0.134

Q: Which “PBM E-score” value does the source give for ACTAGACT here?
A: -0.186

Q: For ACAAAGTC, which “PBM E-score” value is on record?
A: 0.0424

Q: How did the “PBM E-score” value turn out when ACGGTGCC was run?
A: -0.0717

Q: How did the “PBM E-score” value turn out when CAGATATC was run?
A: 0.00794

Q: AGTGAAAA was tested. Which “PBM E-score” value did it give?
A: 0.0735

Q: With CCGCTGAC as the sequence, how does the “PBM E-score” value read?
A: -0.146

Q: CCCGCACG was tested. Which “PBM E-score” value did it give?
A: -0.229

Q: For ACCTAGGT, which “PBM E-score” value is on record?
A: -0.102

Q: Which “PBM E-score” value does the source give for CAGGTTTA here?
A: -0.046

Q: With TAAGACGA as the sequence, how does the “PBM E-score” value read?
A: -0.0827

Q: Which “PBM E-score” value does the source give for ATGAGAAA here?
A: 0.0401

Q: AGCGATGA was tested. Which “PBM E-score” value did it give?
A: -0.0359

Q: For AATAAGCC, which “PBM E-score” value is on record?
A: -0.212

Q: Which “PBM E-score” value does the source give for CGCAGTTA here?
A: 0.0795

Q: For ACTGGTCT, which “PBM E-score” value is on record?
A: -0.147

Q: Which “PBM E-score” value does the source give for ATGAGCAT here?
A: 0.125

Q: CCGCCTGA was tested. Which “PBM E-score” value did it give?
A: -0.247

Q: For AACCGACC, which “PBM E-score” value is on record?
A: -0.111

Q: For CAACGCAG, which “PBM E-score” value is on record?
A: 0.1

Q: For ATGCTGAG, which “PBM E-score” value is on record?
A: -0.193

Q: Which “PBM E-score” value does the source give for GAATAACC here?
A: -0.0464

Q: With GCGCACCC as the sequence, how does the “PBM E-score” value read?
A: -0.16

Q: GCCTGAAA was tested. Which “PBM E-score” value did it give?
A: -0.011

Q: With ACACACGG as the sequence, how does the “PBM E-score” value read?
A: 0.277

Q: How did the “PBM E-score” value turn out when CGTCGGAG was run?
A: 0.039

Q: For GGGCGCCC, which “PBM E-score” value is on record?
A: -0.262

Q: Which “PBM E-score” value does the source give for ATAAACCG here?
A: -0.0464

Q: With CACGTCTC as the sequence, how does the “PBM E-score” value read?
A: -0.014

Q: Which “PBM E-score” value does the source give for CTAATGCA here?
A: 0.0875

Q: GCCTCGTA was tested. Which “PBM E-score” value did it give?
A: 0.202

Q: For GAACGTGA, which “PBM E-score” value is on record?
A: 0.0247

Q: ACAGACGC was tested. Which “PBM E-score” value did it give?
A: 0.086

Q: With ACCCTTTC as the sequence, how does the “PBM E-score” value read?
A: 0.11

Q: With GTAGCCGA as the sequence, how does the “PBM E-score” value read?
A: -0.0475

Q: For CACCTGCA, which “PBM E-score” value is on record?
A: -0.237
